According to patent US11618753B2 (priority 2018, dated 2023):

Each molecule was assayed on MLKL phosphorylation, HT29-L23 human colorectal adenocarcinoma cells. Conditions: read-out: pMLKL HCS Cell Assay (IC50).
`COc1ncc(-c2cc(C(F)(F)F)c3c(N)ncnn23)cc1C(=O)NC1CN(C(C)C(C)O)C[C@@H]1F` (stereo partly drawn) [Example 1411, 5-[4-amino-5-(trifluoromethyl)-pyrrolo[2,1-f][1,2,4]triazin-7-yl]-N-[(3R,4S)-4-fluoro-1-(3-hydroxybutan-2-yl)pyrrolidin-3-yl]-2-methoxypyridine-3-carboxamide] showed an IC50 of 167 nM. With `COc1ncc(-c2cc(C(F)(F)F)c3c(N)ncnn23)cc1C(=O)N[C@@H]1CN(C2CCCC2(C)O)C[C@@H]1F` (stereo partly drawn) [Example 1412, 5-[4-amino-5-(trifluoromethyl)-pyrrolo[2,1-f][1,2,4]triazin-7-yl]-N-[(3R,4S)-4-fluoro-1-(2-hydroxy-2-methylcyclopentyl)-pyrrolidin-3-yl]-2-methoxy-pyridine-3-carboxamide] the IC50 was 433 nM. `COc1ncc(-c2cc(C(F)(F)F)c3c(N)ncnn23)cc1C(=O)NC1CN(C(C)C(C)O)C[C@@H]1F` (stereo partly drawn) [Example 1413, 5-[4-amino-5-(trifluoromethyl)-pyrrolo[2,1-f][1,2,4]triazin-7-yl]-N-[(3R,4S)-4-fluoro-1-(3-hydroxybutan-2-yl)pyrrolidin-3-yl]-2-methoxypyridine-3-carboxamide] was tested, and the IC50 was 95 nM. `COc1ncc(-c2cc(C(F)(F)F)c3c(N)ncnn23)cc1C(=O)NC1CN(C2CCCCC2(C)O)C[C@@H]1F` (stereo partly drawn) [Example 1414, 5-[4-amino-5-(trifluoromethyl)-pyrrolo[2,1-f][1,2,4]triazin-7-yl]-N-[(3R,4S)-4-fluoro-1-(2-hydroxy-2-methylcyclo-hexyl]pyrrolidin-3-yl]-2-methoxypyridine-3-carbox-amide] showed an IC50 of 85 nM. Molecule `COc1ncc(-c2cc(C(F)(F)F)c3c(N)ncnn23)cc1C(=O)NC1CN(C(=O)OC(C)C(F)(F)C(F)(F)F)C[C@@H]1F` (stereo partly drawn) [Example 1456, 3,3,4,4,4-pentafluorobutan-2-yl (3R,4S)-3-{5-[4-amino-5-(trifluoromethyl)pyrrolo[2,1-f][1,2,4]triazin-7-yl]-2-methoxypyridine-3-amido}-4-fluoropyrrolidine-1-carboxylate] has an IC50 of 97 nM. Work on `COc1ncc(-c2cc(C(F)(F)F)c3c(N)ncnn23)cc1C(=O)NC1CN(C(=O)OCC2CC2(F)F)C[C@@H]1F` (stereo partly drawn) [Example 1457, (2,2-difluorocyclopropyl)methyl (3R,4S)-3-{5-[4-amino-5-(trifluoromethyl)pyrrolo[2,1-f][1,2,4]triazin-7-yl]-2-methoxypyridine-3-amido}-4-fluoropyrrolidine-1-carboxylate] yielded an IC50 of 7.3 nM. `COc1ncc(-c2cc(C(F)(F)F)c3c(N)ncnn23)cc1C(=O)NC1CN(C(=O)OC(C)C(F)(F)C(F)(F)F)C[C@@H]1F` (stereo partly drawn) [Example 1458, 3,3,4,4,4-pentafluorobutan-2-yl (3R,4S)-3-{5-[4-amino-5-(trifluoromethyl)pyrrolo[2,1-f][1,2,4]triazin-7-yl]-2-methoxypyridine-3-amido}-4-fluoropyrrolidine-1-carboxylate] showed an IC50 of 8.2 nM. `COc1ncc(-c2cc(C(F)(F)F)c3c(N)ncnn23)cc1C(=O)NC1CN(C(=O)OCC2CC2(F)F)C[C@@H]1F` (stereo partly drawn) [Example 1459, (2,2-difluorocyclopropyl)methyl (3R,4S)-3-{5-[4-amino-5-(trifluoromethyl)pyrrolo[2,1-f][1,2,4]triazin-7-yl]-2-methoxypyridine-3-amido}-4-fluoropyrrolidine-1-carboxylate] showed an IC50 of 2.9 nM. With `COc1ncc(-c2cc(CN3CCC(F)(F)CC3)c3c(N)ncnn23)cc1C(=O)N[C@@H]1CN(C(=O)OC(C)CC(F)(F)F)C[C@@H]1F` (stereo partly drawn) [Example 1506, 4,4,4-trifluorobutan-2-yl (3R,4S)-3-(5-{4-amino-5-[(4,4-difluoropiperidin-1-yl)methyl]pyrrolo[2,1-f][1,2,4]triazin-7-yl}-2-methoxypyridine-3-amido)-4-fluoropyrrolidine-1-carboxylate] the IC50 was 4.3 nM. `COc1ncc(-c2cc(CN3CCC(F)(F)CC3)c3c(N)ncnn23)cc1C(=O)N[C@@H]1CN(C(=O)OC(C)C(F)(F)C(F)(F)F)C[C@@H]1F` (stereo partly drawn) [Example 1531, 3,3,4,4,4-pentafluorobutan-2-yl (3R,4S)-3-(5-{4-amino-5-[(4,4-difluoropiperidin-1-yl)methyl]pyrrolo[2,1-f][1,2,4]triazin-7-yl}-2-methoxypyridine-3-amido)-4-fluoropyrrolidine-1-carboxylate] was tested, and the IC50 was 39 nM. For `COc1ncc(-c2cc(CN3CCC(F)(F)CC3)c3c(N)ncnn23)cc1C(=O)N[C@@H]1CN(C(=O)OC(C)C(F)(F)C(F)(F)F)C[C@@H]1F` (stereo partly drawn) [Example 1536, 3,3,4,4,4-pentafluorobutan-2-yl (3R,4S)-3-(5-{4-amino-5-[(4,4-difluoropiperidin-1-yl)methyl]pyrrolo[2,1-f][1,2,4]triazin-7-yl}-2-methoxypyridine-3-amido)-4-fluoropyrrolidine-1-carboxylate], the IC50 was 7.9 nM. For `COc1ncc(-c2cc(CN3CCC(F)(F)CC3)c3c(N)ncnn23)cc1C(=O)NC1CN(S(=O)(=O)C(C)C(F)(F)F)C[C@@H]1F` (stereo partly drawn) [Example 1544, 5-{4-amino-5-[(4,4-difluoropiperidin-1-yl)methyl]pyrrolo[2,1-f][1,2,4]triazin-7-yl}-N-[(3R,4S)-4-fluoro-1-(1,1,1-trifluoropropane-2-sulfonyl)pyrrolidin-3-yl]-2-methoxypyridine-3-carboxamide], the IC50 was 2.3 nM. For `COc1ncc(-c2cc(C(F)(F)F)c3c(N)ncnn23)cc1C(=O)N1CCCC(C(C)(O)c2ccc(F)cc2)C1` (stereo not drawn) [Example 1734, (5-(4-amino-5-(trifluoromethyl)pyrrolo[2,1-f][1,2,4]triazin-7-yl)-2-methoxypyridin-3-yl)(3-(1-(4-fluorophenyl)-1-hydroxyethyl)piperidin-1-yl)methanone], the IC50 was 284 nM. Work on `Cc1ncc(-c2cc(C(F)(F)F)c3c(N)ncnn23)cc1C(=O)N1CCCC(C(C)(O)c2ccc(F)cc2)C1` (stereo not drawn) [Example 1736, (5-(4-amino-5-(trifluoromethyl)pyrrolo[2,1-f][1,2,4]triazin-7-yl)-2-methylpyridin-3-yl)(3-(1-(4-fluorophenyl)-1-hydroxyethyl)piperidin-1-yl)methanone] yielded an IC50 of 222 nM. Molecule `COc1ncc(-c2cc(C(F)(F)F)c3c(N)ncnn23)cc1C(=O)N1CCCC(C)(C(O)c2ccc(F)cc2)C1` (stereo not drawn) [Example 1738, (5-(4-amino-5-(trifluoromethyl)pyrrolo[2,1-f][1,2,4]triazin-7-yl)-2-methoxypyridin-3-yl)(3-((4-fluorophenyl)(hydroxy)methyl)-3-methylpiperidin-1-yl)methanone] has an IC50 of 63 nM. Work on `CCC(O)(CN1C[C@H](F)[C@H](NC(=O)c2cc(-c3cc(C(F)(F)F)c4c(N)ncnn34)cnc2OC)C1)C(F)(F)F` (stereo partly drawn) [Example 1822, 5-(4-amino-5-(trifluoromethyl)pyrrolo[2,1-f][1,2,4]triazin-7-yl)-N-((3R,4S)-4-fluoro-1-(2-hydroxy-2-(trifluoromethyl)butyl)pyrrolidin-3-yl)-2-methoxynicotinamide] yielded an IC50 of 9.4 nM. With `CCC(O)(CN1C[C@H](F)[C@H](NC(=O)c2cc(-c3cc(C(F)(F)F)c4c(N)ncnn34)cnc2OC)C1)C(F)(F)F` (stereo partly drawn) [Example 1823, 5-(4-amino-5-(trifluoromethyl)pyrrolo[2,1-f][1,2,4]triazin-7-yl)-N-((3R,4S)-4-fluoro-1-(2-hydroxy-2-(trifluoromethyl)butyl)pyrrolidin-3-yl)-2-methoxynicotinamide] the IC50 was 24 nM. `COc1ncc(-c2cc(C(F)(F)F)c3c(N)ncnn23)cc1C(=O)NC1CN(CC(O)(C2CC2)C(F)(F)F)C[C@@H]1F` (stereo partly drawn) [Example 1827, 5-(4-amino-5-(trifluoromethyl)pyrrolo[2,1-f][1,2,4]triazin-7-yl)-N-((3R,4S)-1-(2-cyclopropyl-3,3,3-trifluoro-2-hydroxypropyl)-4-fluoropyrrolidin-3-yl)-2-methoxynicotinamide] was tested, and the IC50 was 6 nM.
